Patent publication US20160376343A1 (NATIONAL INSTITUTE FOR BIOTECHNOLOGY IN THE NEGEV, published 2016)

Target: T1, hIL-17A (human, UniProt Q16552 24-155)
T1 construct: Bought protein
Test: ELISA of cleared E. coli lysate on plate-captured hIL-17A, detected with biotinylated anti-hIL-17RA and streptavidin-HRP, OD 450 nm; concentration not given
Protocol: ELISA plates (Griener Microlon 96W) were incubated with 100 μl of 0.5 μg/ml goat α-hIL-17A antibodies (R&D Systems) for 1 hour, washed with PBS supplemented with 0.05% Tween-80 (PBST) and 100 μl of 0.35 μg/ml hIL-17A (R&D Systems or ProSpec Tany TechnoGene Ltd.) were added to the plate for an additional 1 hour. The plates were then washed with PBST and blocked by incubation with 100 μl of PBS supplemented with 3% skim milk for 1 hour. Following blocking, the plates were washed and incubated with 100 μl of the cleared lysate, cell media or purified protein generated (described above) at appropriate dilutions and shaken for 1 hour. hIL-17RA (R&D Systems) was applied at a concentration of 6.25 μg/ml as a positive control, and PBS supplemented with 1% BSA as a negative control. Plates were then washed with PBST, incubated with 100 μl of 0.05 μg/ml goat α-hIL-17RA antibodies (R&D Systems) followed by a secondary peroxidase-conjugated streptavidin (Jackson, 1:10000 dilution). Finally, 100 μl of the horseradish peroxidase (HRP) chromogenic 3,3′,5,5′-tetramethylbenzidine (TMB) substrate solution (Dako) were added. The reaction was stopped by the addition of 1 M sulfuric acid and recorded at 450 nm using a Tecan Infinite M200 plate reader.

hIL-17A, sequence (Q16552 24-155 limits assumed): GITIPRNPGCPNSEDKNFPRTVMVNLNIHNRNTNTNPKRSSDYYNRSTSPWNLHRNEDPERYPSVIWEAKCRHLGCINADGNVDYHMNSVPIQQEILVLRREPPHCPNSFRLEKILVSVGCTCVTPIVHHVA

binding result: binds
B1: ECD (receptor)
chain: not shown
notes: also called WT hIL17RA-ECD expressed in E. coli (Trx-6xHis-tagged); not shown: Thioredoxin (Trx)-6xHis tag and linker of pET32
